The record followed here is patent US20190055314A1.

The chains behind the UniProt entries cited, without tags or fusion partners. Where a name states a change or a piece, a line headed by the entry shows the natural chain unless it says otherwise.
UniProt Q07011: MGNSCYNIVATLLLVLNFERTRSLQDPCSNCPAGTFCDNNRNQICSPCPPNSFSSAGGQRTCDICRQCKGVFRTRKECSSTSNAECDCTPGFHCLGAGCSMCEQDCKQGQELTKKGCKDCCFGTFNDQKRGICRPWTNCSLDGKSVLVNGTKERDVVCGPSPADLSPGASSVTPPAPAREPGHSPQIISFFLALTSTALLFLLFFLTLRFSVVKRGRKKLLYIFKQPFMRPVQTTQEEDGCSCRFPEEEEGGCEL

The target in experiment [1] is full-length human CD137 on the cell surface (human) (UniProt Q07011). The experiment is described as follows: flow cytometry.
Experiment [2] has the same target. Kind of experiment: summary of Example 4.
Experiment [3] shares this target. Kind of experiment: flow cytometry, HEK293F. For orientation: A flow cytometer gives signals particle by particle.
Experiment [4] deals with T1, rat CD137 on the cell surface (rat) (UniProt Q4W8J3).
T1 sequence: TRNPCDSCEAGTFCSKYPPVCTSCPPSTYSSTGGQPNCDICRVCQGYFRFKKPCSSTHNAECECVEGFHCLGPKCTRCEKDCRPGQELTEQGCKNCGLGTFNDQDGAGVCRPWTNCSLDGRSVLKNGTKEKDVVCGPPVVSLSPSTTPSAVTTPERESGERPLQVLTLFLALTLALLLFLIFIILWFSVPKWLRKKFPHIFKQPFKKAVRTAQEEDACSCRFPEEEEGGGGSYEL
The experiment is described as follows: flow cytometry, HEK293F.

The target of experiment [5] is full-length human CD137 on the cell surface (human) (UniProt Q07011). The experiment is described as follows: flow cytometry, HEK293F, 100 nM.
For experiment [6], the target named is Hu_CRD1-CRD2-CRD3 (human) (UniProt Q07011). The experiment is described as follows: flow cytometry, yeast display.
For experiment [7], the target named is full-length human CD137 on the cell surface (human) (UniProt Q07011). The experiment is described as follows: flow cytometry, yeast display.
Experiment [8] concerns the target Hu_CRD1-CRD2-CRD3 (human) (UniProt Q07011). Kind of experiment: flow cytometry, yeast display [Cont.].
The target of experiment [9] is full-length human CD137 on the cell surface (human) (UniProt Q07011). The experiment is described as follows: flow cytometry, HEK293F cells expressing CD137.
Experiment [10] addresses T1, rat CD137 on the cell surface (rat). Kind of experiment: flow cytometry, HEK293F cells expressing CD137 [Cont.].
In experiment [11] the target is full-length human CD137 on the cell surface (human) (UniProt Q07011). The experiment is described as follows: flow cytometry, HEK293F cells expressing CD137 or mutant [Cont.].
For experiment [12] the target is unchanged. The experiment is described as follows: flow cytometry, HEK293F cells expressing CD137, IgG 100 nM [Cont.].
Experiment [13] shares this target. Kind of experiment: flow cytometry, PMA/ionomycin-activated human T cells, antibody 100 nM.
For experiment [14] the target is unchanged. The experiment is described as follows: flow cytometry, HEK293F cells expressing the receptor, antibody 100 nM [Cont.].
Experiment [15] deals with T2, mouse CD137 fused with human FC fragment (mouse) (UniProt P20334).
T2 sequence: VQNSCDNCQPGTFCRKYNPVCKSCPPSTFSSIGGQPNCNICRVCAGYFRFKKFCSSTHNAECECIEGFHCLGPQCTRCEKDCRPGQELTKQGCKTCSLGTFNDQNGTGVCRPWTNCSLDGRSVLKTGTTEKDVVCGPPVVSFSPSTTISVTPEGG
The experiment is described as follows: ELISA, captured Fab, CD137-Fc. (In an ELISA, binding on a coated surface is turned into a signal by an enzyme label.)

Experiment [16] deals with T2, mouse CD137 fused with human FC fragment (mouse). The experiment is described as follows: ELISA, Fab captured by anti-human IgG (Fab specific), CD137-Fc added, anti-human Fc-HRP.

Results are given in words; binding and its absence hold for the method and conditions named. Some entries that bind do so weakly or less than the wild type. For some assays here: Where a sequence is shown, tags or fusion partners need not be part of it.

B1: AG10058 (antibody, human IgG4 S228P, kappa, V domains shown)
VH: EVQLVESGGGLVQPGGSLRLSCAASGFSLSTSGVGVGWIRQAPGKGLEWLALIDWDDDKYYSPSLKSRLTISRDNSKNTLYLQLNSLRAEDTAVYYCARGGSDTVLGDWFAYWGQGTLVTVSS
VL: DIQLTQSPSSLSASVGDRVTITCRASQSVSPYLAWYQQKPGKAPKLLIYDASSLESGVPSRFSGSGSGTDFTLTISSLQPEDFATYYCQQGYSLWTFGQGTKVEIKR
Consider B1, for which the binding entry is given as “binds” in experiment [1]; “binds” in experiment [2]; “binds” in experiment [3]; “no binding” in experiment [4]; “binds” in [5]; “binds” in [6]. The binding result in [7] is listed as “binds”; in [8], “binds”; in [9], “binds”; in experiment [10], “no binding (tested: 100 nM (text paragraph 220))”; in [11] it was “binds”; in experiment [12], “binds”. The binding result in [13] and in experiment [14] was “binds” throughout.

B2: Fab 5310 (Fab, V domains shown)
VH: EVQLVESGGGLVQPGGSLRLSCAASGFSLSTSGVGVGWIRQAPGKGLEWLALIDWDDDKYYSPSLKSRLTISRDNSKNTLYLQLNSLRAEDTAVYYCARGGSDTVLGDWFAYWGQGTLVTVSS
VL: DIQLTQSPSSLSASVGDRVTITCRASQSVSPYLAWYQQKPGKAPKLLIYDASSLESGVPSRFSGSGSGTDFTLTISSLQPEDFATYYCQQGYSLWTFGQGTKVEIKR
For the molecule B2, the binding result in [15] and in experiment [16] was “binds” in each case.

B3: AG10059 (antibody, human IgG4 S228P, kappa, V domains shown)
VH: EVQLVESGGGLVQPGGSLRLSCAASGYSITSGHYWAWIRQAPGKGLEWVSSISGYGSTTYYADSVKGRFTISRDNSKNTLYLQLNSLRAEDTAVYYCARGGSDAVLGDWFAYWGQGTLVTVSS
VL: DIQLTQSPSSLSASVGDRVTITCRASQGIGSFLAWYQQKPGKAPKLLIYDASNLETGVPSRFSGSGSGTDFTLTISSLQPEDFATYYCQQGYYLWTFGQGTKVEIKR
For the molecule B3, the binding entry in experiment [1], in experiment [3], in experiment [5], in experiment [6], in [7] and in experiment [8] was “binds” throughout. The binding entry in experiment [9], in [11], in experiment [12], in experiment [13] and in experiment [14] was “binds” throughout.

B4: Fab 5365 (Fab, V domains shown)
VH: EVQLVESGGGLVQPGGSLRLSCAASGFSLSTGGVGVGWIRQAPGKGLEWLALIDWADDKYYSPSLKSRLTISRDNSKNTLYLQLNSLRAEDTAVYYCARGGSDTVIGDWFAYWGQGTLVTVSS
VL: DIQLTQSPSSLSASVGDRVTITCRASQSIGSYLAWYQQKPGKAPKLLIYDASNLETGVPSRFSGSGSGTDFTLTISSLQPEDFATYYCQQGYYLWTFGQGTKVEIKR
On to B4, for which the binding result in experiment [15] and in experiment [16] was “binds” in each case.
